This is one part of the list. Sequences were assembled here from the parent chain. Inactive controls read about 0.05.
B1: TEV protease; numbered along this chain (parent)
chain: MGESLFKGPRDYNPISSSICHLTNESDGHTTSLYGIGFGPFIITNKHLFRRNNGTLVVQSLHGVFKVKDTTTLQQHLVDGRDMIIIRMPKDFPPFPQKLKFREPQREERICLVTTNFQTKSMSSMVSDTSCTFPSGDGIFWKHWIQTKDGQCGSPLVSTRDGFIVGIHSASNFTNTNNYFTSVPKNFMELLTNQEAQQWVSGWRLNADSVLWGGHKVFMVKPEEPFQPVKEATQL

Variants of: B1
Test: raw area under fraction-flipped curve 0-4 h after induction (AUC4h, not background-subtracted), DNA-recorder readout of cleavage of the substrate (dimensionless); higher = more cleavage of the substrate by the protease variant
Settings: temperature: 34 °C; time window: 0-4 h after rhamnose induction
Experimental: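 In vivo DNA recorder in E. coli TOP10(DE3) ΔrhaA at 34 °C. Each TEVp single-site mutant (parent TEVp 0) is paired with a single-site variant of the 7-mer TEVs (canonical ENLYFQ|S). The substrate sits between flexible linkers in a Bxb1-sfGFP-TEVs-SsrA fusion, so cleavage stabilises Bxb1 and speeds flipping of a recombination array, read by NGS. The value is the raw area under the fraction-flipped curve over 0-4 h after rhamnose induction (AUC4h), with ≥20 reads per time point. It is not background-subtracted; inactive controls average about 0.047.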
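Also: Bxb1 expression induced with 0.2% (w/v) L-rhamnose at OD600 near 0.5, cultures sampled hourly, flipped fraction per protease–substrate barcode pair counted by paired-end Illumina sequencing.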

Variant	area with substrate CNLYFQS	area with substrate DNLYFQS	area with substrate FNLYFQS	area with substrate GNLYFQS	area with substrate HNLYFQS	area with substrate KNLYFQS	area with substrate MNLYFQS	area with substrate PNLYFQS	area with substrate SNLYFQS	area with substrate TNLYFQS	area with substrate WNLYFQS	area with substrate INLYFQS	area with substrate LNLYFQS	area with substrate NNLYFQS	area with substrate YNLYFQS	area with substrate QNLYFQS	area with substrate RNLYFQS	area with substrate VNLYFQS
G37I	0.0593	0.0711	0.0563	0.0571	0.0555	0.0472	0.0543	0.0495	0.0554	0.0558	0.0552							
G37T	0.0882	0.0808		0.0715	0.0637	0.0594	0.059	0.0881	0.0556	0.051		0.0303	0.103	0.0466	0.0631			
G37W	0.0662	0.0576	0.0771	0.0592	0.0651	0.0572		0.0607		0.06	0.0398	0.0533	0.0554		0.0473			
F38C	0.0738	0.076	0.0548	0.0611	0.0609	0.0549				0.0424	0.0542				0.0566	0.0602	0.0528	
F38I	0.0788	0.0679		0.0708	0.0605	0.0284	0.0434	0.0623	0.0615	0.0665	0.0607	0.0541	0.0576		0.0582			
F38W	0.0661	0.119	0.0679	0.103	0.0658	0.0496	0.0672	0.0587	0.0401	0.0751	0.0474	0.0784	0.0665	0.0504				0.0649
F38Y	0.0802	0.0856		0.0692	0.0662	0.0612		0.071	0.0603	0.0676	0.0566	0.0426	0.0687	0.0792	0.077			0.0653
G39E	0.0337	0.0477		0.0426	0.0429			0.0412	0.0389	0.0367	0.0478		0.0396	0.0446			0.0356	0.0246
G39I	0.0399	0.0323	0.021		0.0417	0.0322		0.0511	0.225	0.0415	0.044	0.0489	0.049	0.0457	0.0457			0.0555
G39M	0.0458	0.0527	0.0219	0.0363	0.0316	0.035	0.0398	0.0311		0.0303	0.05		0.0456		0.0457			
G39R	0.0573	0.0529		0.0472	0.0387		0.036	0.0403	0.0511	0.0454	0.046		0.0554	0.0403	0.0337			0.0587
F41I	0.0664	0.0726	0.0633	0.0713	0.0673	0.0639	0.0539	0.0522	0.0595	0.0651	0.0525	0.0547	0.0653	0.0651	0.0571			
I42A	0.0463	0.0498			0.0535	0.0563	0.0514	0.0424		0.0539	0.0451	0.0213	0.048		0.0546	0.0478	0.0453	
I42F	0.0586	0.0577		0.0537	0.0537	0.0521		0.0514		0.0558	0.0513	0.0578			0.0416	0.0528		
I42L	0.106	0.0837		0.0292	0.0588		0.0499	0.0787	0.0793	0.0481	0.0838	0.072	0.0688		0.0588			0.0712
I42R	0.0552	0.0521		0.0558	0.0462	0.0472	0.039	0.0463	0.0463	0.0428	0.0462	0.0433	0.0489		0.0654			
I43A	0.0509	0.047	0.0512	0.066	0.0554	0.0546	0.0542	0.069	0.0365	0.06	0.0385	0.0605						0.0639
I43E	0.0431	0.0461	0.0428	0.0493	0.0544	0.0599	0.0524	0.0437	0.0382	0.0382	0.0437		0.051		0.0424		0.0529	0.0497
I43L	0.0828	0.0698	0.0728	0.0764	0.0582	0.0715	0.0538	0.0612		0.0577	0.0582	0.0603			0.0584			0.0625
I43N	0.0509	0.0439	0.0433	0.0397	0.0501	0.0547	0.0548	0.0529	0.0532	0.061	0.0349		0.0479	0.0317		0.0418	0.0573	0.0402
I43Q	0.0391	0.0621	0.0415	0.0533	0.0478		0.0347	0.0439	0.0476	0.0526	0.0428	0.0306	0.0486	0.0337	0.057	0.0472		
I43S	0.0411	0.0609	0.0266	0.0436	0.0551	0.0571	0.0364	0.0475	0.0551	0.049	0.048	0.0467		0.0404	0.0387		0.0268	0.0566
T44P	0.0331	0.0495	0.0415	0.0651				0.0469		0.0487	0.0654	0.0526	0.0215		0.0266			
T44S	0.0599	0.0771	0.0668	0.061	0.0668	0.0596	0.101	0.0586	0.0597	0.0605	0.0445	0.0574	0.069	0.0687	0.0525			0.0636
N45T	0.0661	0.0889	0.0288	0.0614	0.0566	0.0785	0.0579	0.0667	0.0564	0.062	0.0538		0.0556	0.0517	0.0577		0.0669	0.0575
K46A	0.063	0.0671	0.0807	0.0719	0.0664	0.0711	0.0753	0.114	0.0618	0.12	0.0726	0.0572	0.0773	0.0724	0.0722	0.062		0.093

From the supplement of paper PMC12217912
